Results are given in words; binding and its absence hold for the method and conditions named. Some entries that bind do so weakly or less than the wild type. One block for each binder: values may come before it.
Experiments:
[1] = molecular target: T1, Recombinant human transglutaminase 2 (TG2), Sf9-produced (human), P21980; assay: cross-linking; enzymatic self-crosslinking by TG2's own transglutaminase activity; 5 mM (or 1 mM) CaCl2, 37°C, TBS pH 7.4 (50 mM Tris HCl, 150 mM NaCl); products resolved by 4-20% gradient SDS-PAGE, Coomassie; both purified; conditions: remark: other sources report otherwise
T1 chain: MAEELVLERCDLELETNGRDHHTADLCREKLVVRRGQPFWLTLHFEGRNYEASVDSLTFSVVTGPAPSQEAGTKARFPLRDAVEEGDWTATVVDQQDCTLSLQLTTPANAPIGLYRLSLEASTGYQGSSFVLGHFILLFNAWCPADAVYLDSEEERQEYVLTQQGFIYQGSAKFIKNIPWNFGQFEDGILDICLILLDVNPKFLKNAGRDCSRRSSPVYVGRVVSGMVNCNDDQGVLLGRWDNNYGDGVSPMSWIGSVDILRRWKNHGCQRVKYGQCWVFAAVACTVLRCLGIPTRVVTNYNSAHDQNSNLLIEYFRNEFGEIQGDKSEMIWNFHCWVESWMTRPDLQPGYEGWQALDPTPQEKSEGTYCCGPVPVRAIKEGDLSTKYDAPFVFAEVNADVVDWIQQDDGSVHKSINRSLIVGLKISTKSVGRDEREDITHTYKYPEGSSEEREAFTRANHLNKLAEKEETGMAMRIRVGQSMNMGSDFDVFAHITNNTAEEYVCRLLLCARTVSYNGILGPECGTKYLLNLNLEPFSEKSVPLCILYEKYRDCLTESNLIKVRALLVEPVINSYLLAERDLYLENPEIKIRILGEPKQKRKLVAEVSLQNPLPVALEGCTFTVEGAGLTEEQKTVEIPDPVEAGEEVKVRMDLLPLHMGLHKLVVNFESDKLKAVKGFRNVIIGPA

[2] = molecular target: T1, Recombinant human transglutaminase 2 …; assay: cross-linking; BS3 (0.5 mM) capture of non-covalent complexes; TG2 pre-incubated without effectors (no CaCl2) for 30 min at 37°C in 20 mM HEPES pH 7.5, 150 mM NaCl; SDS-PAGE; both purified; conditions: remark: other sources report otherwise
[3] = molecular target: T2, Inactive, inhibitor-bound TG2 produced in E. coli (TG2-DP3-3) (human), P21980; assay: cross-linking; BS3 (0.5 mM) capture of non-covalent complexes; DP3-3-treated protein pre-incubated with 5 mM CaCl2 for 30 min at 37°C in 20 mM HEPES pH 7.5, 150 mM NaCl; SDS-PAGE; both purified; conditions: remark: other sources report otherwise
T2 chain: T1 chain

[4] = molecular target: T2, Inactive, inhibitor-bound TG2 produced …; assay: dynamic light scattering; 0.2 mg/ml inhibitor-bound protein in 20 mM Tris pH 7.2, 150 mM NaCl with 9 mM (also 5 mM and 2.5 mM) CaCl2, 37°C; both purified; conditions: remark: other sources report otherwise
[5] = molecular target: Recombinant human transglutaminase 2 (TG2), Sf9-produced (human) (UniProt P21980); assay: cross-linking; BS3 (0.5 mM) capture of non-covalent complexes; TG2 pre-incubated with 1 mM GTP for 30 min at 37°C in 20 mM HEPES pH 7.5, 150 mM NaCl; SDS-PAGE; both purified
[6] = molecular target: Inactive, inhibitor-bound TG2 produced in E. coli (TG2-DP3-3) (human) (UniProt P21980); assay: dynamic light scattering; 0.2 mg/ml inhibitor-bound protein in 20 mM Tris pH 7.2, 150 mM NaCl with 1 mM EDTA, 37°C; both purified
[7] = molecular target: T3, TG2 pretreated with the active-site inhibitor DP3-3 (BS3 capture of Fig 2D) (human), P21980; assay: cross-linking; BS3 (0.5 mM) capture of non-covalent complexes; DP3-3-treated protein pre-incubated with 5 mM CaCl2 for 30 min at room temperature in 20 mM HEPES pH 7.5, 150 mM NaCl; SDS-PAGE; both purified; conditions: remark: other sources report otherwise
T3 chain: T1 chain

[8] = molecular target: T3, TG2 pretreated with the active-site …; assay: cross-linking; BS3 (0.5 mM) capture of non-covalent complexes; DP3-3-treated protein pre-incubated with 5 mM CaCl2 for 30 min at 37°C in 20 mM HEPES pH 7.5, 150 mM NaCl; SDS-PAGE; both purified; conditions: remark: other sources report otherwise
[9] = molecular target: T4, Full length E. coli-produced TG2 (active) (human), P21980; assay: cross-linking; enzymatic self-crosslinking by TG2's own transglutaminase activity; 5 mM (or 1 mM) CaCl2, 37°C, TBS pH 7.4 (50 mM Tris HCl, 150 mM NaCl); products resolved by 4-20% gradient SDS-PAGE, Coomassie; both purified; conditions: remark: other sources report otherwise
T4 chain: T1 chain

[10] = molecular target: Inactive, inhibitor-bound TG2 deletion mutant 1-465 (1-465-DP3-3) (human) (UniProt P21980); assay: dynamic light scattering; 0.2 mg/ml inhibitor-bound protein in 20 mM Tris pH 7.2, 150 mM NaCl with 9 mM (also 5 mM and 2.5 mM) CaCl2, 37°C; both purified
[11] = molecular target: Inactive, inhibitor-bound TG2 deletion mutant 1-465 (1-465-DP3-3) (human) (UniProt P21980); assay: cross-linking; BS3 (0.5 mM) capture of non-covalent complexes; DP3-3-treated protein pre-incubated with 5 mM CaCl2 for 30 min at 37°C in 20 mM HEPES pH 7.5, 150 mM NaCl; SDS-PAGE; both purified
[12] = molecular target: Inactive, inhibitor-bound TG2 deletion mutant 1-465 (1-465-DP3-3) (human) (UniProt P21980); assay: dynamic light scattering; 0.2 mg/ml inhibitor-bound protein in 20 mM Tris pH 7.2, 150 mM NaCl with 1 mM EDTA, 37°C; both purified
[13] = molecular target: TG2 deletion mutant 1-465, active, E. coli-produced (human) (UniProt P21980); assay: cross-linking; enzymatic self-crosslinking by TG2's own transglutaminase activity; 5 mM (or 1 mM) CaCl2, 37°C, TBS pH 7.4 (50 mM Tris HCl, 150 mM NaCl); products resolved by 4-20% gradient SDS-PAGE, Coomassie; both purified

binding [1]: binds
binding [2]: binds
B1: Recombinant human transglutaminase 2 (TG2), Sf9-produced, P21980 1-687 (enzyme)
chain: T1 chain

binding [3]: binds
binding [4]: binds
B2: Inactive, inhibitor-bound TG2 produced in E. coli (TG2-DP3-3), P21980 1-687 (enzyme)
chain: T1 chain
modifications: here or on the partner: active site covalently linked to the inhibitor Ac-P-DON-LPF-NH2 (DP3-3); active site covalently linked to the inhibitor Ac-P-DON-LPF-NH2 (DP3-3)

binding [5]: no binding (condition: with 1 mM GTP)
B3: Recombinant human transglutaminase 2 (TG2), Sf9-produced (enzyme, UniProt P21980 1-687)
chain: T1 chain

B4: Inactive, inhibitor-bound TG2 produced in E. coli (TG2-DP3-3) (enzyme, UniProt P21980 1-687)
chain: T1 chain
modifications: active site covalently linked to the inhibitor Ac-P-DON-LPF-NH2 (DP3-3)
binding [6]: no binding (condition: with 1 mM EDTA (0.2 mg/ml))

binding [7]: binds
binding [8]: binds
B5: TG2 pretreated with the active-site inhibitor DP3-3 (BS3 capture of Fig 2D), P21980 1-687 (enzyme)
chain: T1 chain
modifications: here or on the partner: active site covalently linked to the inhibitor Ac-P-DON-LPF-NH2 (DP3-3); active site covalently linked to the inhibitor Ac-P-DON-LPF-NH2 (DP3-3)

binding [9]: binds
B6: Full length E. coli-produced TG2 (active), P21980 1-687 (enzyme)
chain: T1 chain

binding [10]: no binding (tested: 0.2 mg/ml)
binding [11]: no binding
binding [12]: no binding (tested: 0.2 mg/ml)
B7: Inactive, inhibitor-bound TG2 deletion mutant 1-465 (1-465-DP3-3) (domain or fragment, UniProt P21980 1-465)
chain: MAEELVLERCDLELETNGRDHHTADLCREKLVVRRGQPFWLTLHFEGRNYEASVDSLTFSVVTGPAPSQEAGTKARFPLRDAVEEGDWTATVVDQQDCTLSLQLTTPANAPIGLYRLSLEASTGYQGSSFVLGHFILLFNAWCPADAVYLDSEEERQEYVLTQQGFIYQGSAKFIKNIPWNFGQFEDGILDICLILLDVNPKFLKNAGRDCSRRSSPVYVGRVVSGMVNCNDDQGVLLGRWDNNYGDGVSPMSWIGSVDILRRWKNHGCQRVKYGQCWVFAAVACTVLRCLGIPTRVVTNYNSAHDQNSNLLIEYFRNEFGEIQGDKSEMIWNFHCWVESWMTRPDLQPGYEGWQALDPTPQEKSEGTYCCGPVPVRAIKEGDLSTKYDAPFVFAEVNADVVDWIQQDDGSVHKSINRSLIVGLKISTKSVGRDEREDITHTYKYPEGSSEEREAFTRANHLNKL
modifications: active site covalently linked to the inhibitor Ac-P-DON-LPF-NH2 (DP3-3)

B8: TG2 deletion mutant 1-465, active, E. coli-produced (domain or fragment, UniProt P21980 1-465)
chain: B7 chain
binding [13]: no binding (tested: 0.7 μM to 4.2 μM enzyme)

— article PMC4526674
